# Measurements taken from PubChem BioAssay AID1159614 (National Center for Advancing Translational Sciences (NCATS), 2016).
# In all, about 45,000 compounds went through this assay and about 65 (0.1%) were called active. The call rests on the fitted dose curve; in most records, active means well fitted activation curve with a large enough effect; inconclusive means small, poorly fitted or top-dose-only effect; inactive means no such curve, though single readings can be large or run the other way. The list shows a part of the results.
# Biological target: Galactocerebrosidase (Homo sapiens) (UniProt P54803)
# Experiment: A Novel Cell-Based Assay to Identify Small Molecules for B -Galactocerebrosidase; further: 0% is about no effect; nearly all actives have a fitted effect of over 65% in size
# Conditions: 145M-Twi-hGALC-G270D cells (Twitcher mouse brain line with human GALC G270D), HMU-beta-Gal fluorescence, 48 h; series mostly up to 57.5 µM; activation: at the top concentration
# In short: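 Live 145M-Twi cells (Twitcher mouse brain-derived, GALC-null) stably expressing human GALC-G270D, with a wild-type GALC line, were compound-treated. Residual GALC activity was then read as fluorescence from 0.1 mM final HMU-β-gal at pH 5.2; higher signal means activation.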
# Chain of UniProt P54803 (P54803 whole entry, looked up): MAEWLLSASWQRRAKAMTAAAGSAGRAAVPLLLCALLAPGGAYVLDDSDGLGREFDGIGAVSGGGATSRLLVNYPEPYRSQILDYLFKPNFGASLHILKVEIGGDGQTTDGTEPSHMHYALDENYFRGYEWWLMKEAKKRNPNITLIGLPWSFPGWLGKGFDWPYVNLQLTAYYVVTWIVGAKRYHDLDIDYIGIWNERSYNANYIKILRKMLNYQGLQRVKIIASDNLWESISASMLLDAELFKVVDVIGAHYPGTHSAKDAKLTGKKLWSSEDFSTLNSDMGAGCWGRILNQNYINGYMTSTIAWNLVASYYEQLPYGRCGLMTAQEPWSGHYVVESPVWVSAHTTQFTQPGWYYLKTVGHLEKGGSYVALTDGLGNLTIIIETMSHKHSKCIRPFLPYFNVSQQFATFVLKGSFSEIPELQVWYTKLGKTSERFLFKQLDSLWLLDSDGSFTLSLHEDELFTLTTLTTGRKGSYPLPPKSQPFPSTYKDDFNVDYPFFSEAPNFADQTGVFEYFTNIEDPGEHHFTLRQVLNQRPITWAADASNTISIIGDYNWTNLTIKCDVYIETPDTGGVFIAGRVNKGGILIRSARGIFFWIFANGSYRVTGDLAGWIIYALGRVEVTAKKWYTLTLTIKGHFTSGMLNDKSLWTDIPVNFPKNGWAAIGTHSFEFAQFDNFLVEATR
row,SMILES,activation
1,CCc1cnc2c(c1SCC(=O)Nc1cc(Cl)ccc1OC)c(=O)n(C)c(=O)n2C,inactive: -11.6%
2,COc1ccc(CCNC(=O)Cn2cc(S(=O)(=O)Cc3cccc(Cl)c3)c3ccccc32)cc1OC,inactive: -11.7%
3,COc1ccc(-c2noc(CSc3nnc(-c4ccc(Cl)cc4)n3C)n2)cc1OC,inactive: -5.92%
4,CCOC(=O)c1cnc2c(C(F)(F)F)cccc2c1Nc1cccc(C(=O)OC)c1,inactive: -7.02%
5,CCOc1ccccc1NC(=O)CSc1nc2c(oc3ccccc32)c(=O)n1Cc1ccco1,inactive: -0.824%
6,COc1ccccc1Nc1c2c(nc3ccc(NC(=O)c4cccc(F)c4)cc13)CCCC2,inactive: -10.1%
7,O=C(NC1CCCC1)c1ccc2c(c1)N(Cc1ccccc1Cl)C(=O)c1ccccc1S2,inactive: -8.36%
8,Cc1cc(C)c(NC(=O)CSc2ncc(S(=O)(=O)c3ccc(C(C)(C)C)cc3)c(=O)[nH]2)c(C)c1,inactive: 7.58%
9,CCc1ccc(CNC(=O)C2CCN(C(=O)N3CC(CC)Oc4ccc(C)cc43)CC2)cc1 (configuration not stated),inactive: -8.54%
10,Cc1ccc(OCC(=O)N(Cc2sccc2C)C2CCS(=O)(=O)C2)cc1 (configuration not stated),inactive: -13.7%
11,O=C1c2oc3ccccc3c(=O)c2C(c2cccc(Br)c2)N1c1ccccn1 (configuration not stated),inactive: -7.68%
12,Cc1ccccc1NC(=O)Nc1cccs1,inactive: -5.69%
13,CNC(=O)c1ccc(NC(=O)COc2ccc(-c3nn(C)c(=O)c4ccccc34)cc2)cc1,inactive: -10.5%
14,CCn1ccnc1CC1COc2ccccc2O1 (configuration not stated),inactive: -18.8%
15,CCCCN(C)C(=O)Cn1cnc2sc(C)c(S(=O)(=O)N3CCN(c4ccccc4OC)CC3)c2c1=O,inactive: -12.8%
16,CCOc1ccc(NC(=O)Cn2c(CCC(=O)O)ccc2-c2ccc(C)cc2)cc1,inactive: -7.33%
17,Clc1ccc(Nc2nc(-c3ccccc3)c3cc(Cl)ccc3n2)cc1,inactive: 2.75%
18,COc1ccc(-c2noc(CSc3nnc(-c4ccncc4)n3-c3ccc(C)c(C)c3)n2)cc1,inactive: -11.8%
19,CCOC(=O)c1[nH]c2ccccc2c1NC(=O)c1cc(OCC)c(OCC)c(OCC)c1,inactive: -14.8%
20,Cc1cc(=O)n2nc(N3CCC(C(=O)NCc4ccc(Cl)cc4)CC3)sc2n1,inactive: -17.7%
21,Cc1ccc2onc(CC(=O)N3CCN(c4cccc(C)c4C)CC3)c2c1,inactive: -11.5%
22,Cc1ccc(C)c(CN2C(=O)c3ccccc3Sc3ccc(C(=O)NCc4ccc5c(c4)OCO5)cc32)c1,inactive: -14.6%
23,COc1ccc(Cn2c(CO)cnc2SCC(=O)NCc2ccco2)cc1,inactive: -9.19%
24,COc1cc(NC(=O)CC(C)S(=O)(=O)c2cc3c4c(c2)CCN4C(=O)CC3)cc(OC)c1 (configuration not stated),inactive: -14.2%

row,SMILES,activation
1,Cc1ccccc1C(=O)Nc1cccc(C(=O)OCc2cc(=O)n3nc(C4CC4)sc3n2)c1,inactive: -8.63%
2,COc1ccc(-c2nc(Cn3c(SCc4ccc(F)cc4)nc4cccnc43)c(C)o2)cc1,inactive: -10.4%
3,CC(=O)c1cccc(NC(=O)c2ccc3nc(C(C)C)oc3c2)c1,inactive: -6.06%
4,COc1ccc(NC(=O)c2c(NC(=O)c3cccc(C)c3)sc3c2CCCC3)cc1,inactive: -8.69%
5,COc1cc2nc(SCC(=O)Nc3cccc(C)c3)n3nc(-c4ccccc4)nc3c2cc1OC,inactive: -21.6%
6,Cc1ccc([N+](=O)[O-])cc1S(=O)(=O)N1CCn2cccc2C1c1ccc(F)c(F)c1 (configuration not stated),inactive: -11.3%
7,COc1ccc(N2CCN(C(=O)c3nn(-c4ccc(C)cc4)c(=O)n(C)c3=O)CC2)cc1,inactive: -21.4%
8,Cc1ccc(CSc2nc3c(c(=O)[nH]2)C(c2cccc(F)c2F)CC(=O)N3)cc1 (configuration not stated),inactive: -5.21%
9,CCOC(=O)c1cc(-c2ccc(OC)cc2)nn1Cc1ccccc1,inactive: 1.23%
10,Cc1ccc(OCC(=O)Nc2ccc3nc(SCC(=O)N(C)c4ccccc4)sc3c2)cc1,inactive: -37.1%
11,COc1ccc(NC(=O)c2sc3nc[nH]c(=O)c3c2C)cc1OC,inactive: -9.35%
12,COc1cc2ncc3c(-c4ccccc4)nn(-c4ccc(C)cc4)c3c2cc1OC,inactive: -8.24%
13,Cn1nnnc1SCCNCc1ccccc1Cl,inactive: -3.43%
14,CC(C)c1ccc(NC(=O)C(Cc2ccccc2)NS(=O)(=O)c2ccc3c(c2)CCC(=O)N3)cc1 (configuration not stated),inactive: -25.8%
15,COc1cccc(CNC(=O)CN(C)S(=O)(=O)c2ccc3c(c2)c(=O)n(C)c(=O)n3C)c1,inactive: -2.78%
16,COc1ccc(Cl)cc1NC(=O)Cn1cc(S(=O)(=O)Cc2cccc(Cl)c2)c2ccccc21,inactive: -11.8%
17,N#C/C(=C\c1ccc(-c2ccc(C(=O)O)cc2)o1)c1nc2ccccc2[nH]1,inactive: -8.81%
18,CN1CCc2c(sc3c2C(=O)NC(c2ccc(OC(=O)c4ccc(Cl)cc4)cc2)N3)C1 (configuration not stated),inactive: 2.03%
19,CC(=O)N1CCc2cc(Br)cc(S(=O)(=O)CCC(=O)NCCc3ccc(Cl)cc3)c21,inactive: -3.92%
20,CC(C)=CCC/C(C)=C/CO,inactive: -14.2%
21,CCCCOc1ccc(C(=O)N(Cc2nc(-c3ccc(Cl)cc3)no2)C(C)C)cc1,inactive: -17.7%
22,Cc1ccc(Cn2c(C)c(CNCc3ccc(OC(C)C)cc3)c(C(=O)O)c2C)cc1,inactive: -5.57%
23,COc1ccc(CC(=O)NCCc2sc(-c3cccc(F)c3)nc2C)cc1,inactive: -4.05%
